Changes are numbered by the printed parent chain; changes in the protein carry UniProt numbers. The list shows a part of the results.
T1: RBFOX1 RRM RbFoxmut (Fox-RRM*) (Homo sapiens, UniProt Q9NWB1 109-208, R118D;E147R;N151S;E152T)
T1 sequence: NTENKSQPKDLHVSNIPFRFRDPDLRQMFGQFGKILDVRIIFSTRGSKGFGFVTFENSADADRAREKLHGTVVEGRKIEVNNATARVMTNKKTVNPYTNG

B1: CGGGGUA (DNA:RNA)
RNA: GGGAGACCGGAAUUCAGAUUGUCCCGGGGUAUUAAAUCCCGUCGUAGCCACCA
DNA 1: CAATCTGAATTCCGGTCTCCC
DNA 2: TGGTGGCTACGACGGGATT
B2: AGUCCUU (DNA:RNA)
RNA: B1 RNA with C25A, G27U, G28C, G29C, A31U
DNA 1: CAATCTGAATTCCGGTCTCCC
DNA 2: TGGTGGCTACGACGGGATT
B3: CAUACUU (DNA:RNA)
RNA: B1 RNA with G26A, G27U, G28A, G29C, A31U
DNA 1: CAATCTGAATTCCGGTCTCCC
DNA 2: TGGTGGCTACGACGGGATT
B4: UAGUAGA (DNA:RNA)
RNA: B1 RNA with C25U, G26A, G28U, G29A, U30G
DNA 1: CAATCTGAATTCCGGTCTCCC
DNA 2: TGGTGGCTACGACGGGATT
B5: UUAACAC (DNA:RNA)
RNA: GGGAGACCGGAAUUCAGAUUGUCCUUAACACUUAAAUCCCGUCGUAGCCACCA
DNA 1: CAATCTGAATTCCGGTCTCCC
DNA 2: TGGTGGCTACGACGGGATT
B6: CGCUUGA (DNA:RNA)
RNA: B1 RNA with G27C, G28U, G29U, U30G
DNA 1: CAATCTGAATTCCGGTCTCCC
DNA 2: TGGTGGCTACGACGGGATT
B7: GCCCUGG (DNA:RNA)
RNA: GGGAGACCGGAAUUCAGAUUGUCCGCCCUGGUUAAAUCCCGUCGUAGCCACCA
DNA 1: CAATCTGAATTCCGGTCTCCC
DNA 2: TGGTGGCTACGACGGGATT
B8: CAGGAAC (DNA:RNA)
RNA: B1 RNA with G26A, G29A, U30A, A31C
DNA 1: CAATCTGAATTCCGGTCTCCC
DNA 2: TGGTGGCTACGACGGGATT
B9: CUAUGUA (DNA:RNA)
RNA: B1 RNA with G26U, G27A, G28U
DNA 1: CAATCTGAATTCCGGTCTCCC
DNA 2: TGGTGGCTACGACGGGATT

biological target: T1, RBFOX1 RRM RbFoxmut (Fox-RRM*); assay: EMSA; HiTS-Eq, 1 nM pool, 10 min; buffer printed only for the single-RNA assays: 10 mM Tris pH 7.5, 150 mM NaCl, 3.4 mM EDTA, 0.001% NP-40, 30 C; conditions: tags: His6 N-terminal (pET28a); label: 5' 32P
Procedure, shortened: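 Purified RbFox RRM (wild type or mutant) was equilibrated for 10 min in 50 µL with 1 nM of a 5′-radiolabelled pool of RNA with 7 randomized nucleotides, its flanks annealed to DNA oligonucleotides, across increasing protein concentrations. Free RNA was separated by 8% native PAGE, excised, reverse-transcribed, PCR-barcoded and sequenced on an Illumina HiSeq 2500. Relative association constants came from read-count changes of each variant against the control reaction, normalised to the cognate motif.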

| Binder | binding signal |
| --- | --- |
| B1 | 0.156 KA relative to UGCAUGU |
| B2 | 0.0798 KA relative to UGCAUGU |
| B3 | 0.129 KA relative to UGCAUGU |
| B4 | 0.119 KA relative to UGCAUGU |
| B5 | 0.0924 KA relative to UGCAUGU |
| B6 | 0.196 KA relative to UGCAUGU |
| B7 | 0.0853 KA relative to UGCAUGU |
| B8 | 0.0847 KA relative to UGCAUGU |
| B9 | 0.198 KA relative to UGCAUGU |
